Consider 53 molecules from ChEMBL document CHEMBL4888484, “Replenishing the malaria drug discovery pipeline: Screening and hit evaluation of the MMV Hit Generation Library 1 (HGL1) against asexual blood stage Plasmodium falciparum ,using a nano luciferase reporter read-out” (2022).

In all, about 150,000 compounds went through this assay and about 540 (0.36%) showed an effect of 50% or more. Some of the results follow.

This assay deals with Plasmodium falciparum. The assay is described as follows: Primary screen in NF54 nanoGlo assay, in single point, at 2uM, 72h; a lower Z score goes with more inhibition. It counts as functional, Erythrocyte. As to conditions: timepoint 72 hour.
For the molecule `Cn1cccc1C(=O)CN1C(=O)NC2(CCCCCCC2)C1=O`, the “% Inhibition” value was -4% and the Z score is given as 0.63.

For the molecule `O=C(O)COc1ccccc1CN1CCO[C@H]2CCCC[C@@H]21`, the “% Inhibition” value was -10% and the Z score was found to be 1.37.

Regarding `Cc1ccc(F)cc1S(=O)(=O)N1CC(F)(F)C[C@H]1CN1CCc2ccccc2C1`, the “% Inhibition” value is recorded as -7% and the Z score was determined as 1.21.

`CO/C=C(\Oc1ccccc1C)C(=O)Nc1ccccc1Cl`: the “% Inhibition” value is given as -29% and the Z score was found to be 3.43.

`CN(C)c1noc([C@H]2CCC(=O)N(C3CC3)[C@@H]2c2cncn2C)n1`: the “% Inhibition” value is reported as -8% and the Z score worked out at 1.5.

In the case of `Cc1ccc2c(c1)C(=O)N1CCCC1C(=O)N2CC(=O)NCC1CCCO1` (stereo unspecified), the “% Inhibition” value is given as -1% and the Z score is listed as 0.1.

For `CCCNC(=O)CN(C)Cc1cn2cccc(C)c2n1`, the “% Inhibition” value was -4% and the Z score was found to be 0.42.

With `O=C(NCc1cccs1)N1CCCC1`, the “% Inhibition” value is given as -15% and the Z score is 1.97.

Take `Cc1c(C(=O)N2C[C@@H](CN(C)C)C[C@H](CO)C2)n(C)c2c(C)cccc12`: the “% Inhibition” value is listed as -13% and the Z score turned out to be 2.26.

In the case of `Cc1ncc(CNC(=O)C(=O)Nc2cc(F)cc(F)c2)s1`, the “% Inhibition” value is listed as -2% and the Z score stood at 0.39.

As for `Cc1cccc(CN2CCC[C@@]3(CCN(C(=O)CCCn4cncn4)C3)C2)c1`, the “% Inhibition” value is recorded as -24% and the Z score is listed as 2.09.

As for `Cn1cccc1C1=NN(C(=O)CN(CCN2CCOCC2)C(=O)NC(C)(C)C)[C@H](c2ccc3c(c2)OCO3)C1`, the “% Inhibition” value is recorded as -10% and the Z score was determined as 1.7.

For the molecule `COC(=O)c1cc2c(cc1NC(=O)C1CCCCC1)OCO2`, the “% Inhibition” value is reported as -10% and the Z score came to 1.09.

As for `Cc1nc(C)c(F)c(NCC2(O)CCS(=O)(=O)CC2)n1`, the “% Inhibition” value is on record as -7% and the Z score was determined as 0.96.

As for `Cc1cc(F)ccc1S(=O)(=O)N1CCn2nccc2C1`, the “% Inhibition” value is recorded as -3% and the Z score is given as 0.49.

As for `CCc1ccc([C@@H]2COCCN2CCS(C)(=O)=O)o1`, the “% Inhibition” value is given as -7% and the Z score stood at 0.89.

Take `O=C1CCCN1CCCN(CC(=O)N1CCNCC1)C(=O)c1ccc(C(F)(F)F)cc1`: the “% Inhibition” value was -6% and the Z score came to 0.56.

For `Cc1cccc([C@H](CNC(=O)CCN2CCCCC2=O)N(C)C)c1`, the “% Inhibition” value is given as -11% and the Z score is given as 2.04.

For the molecule `C[C@@H](c1cccc(-c2ccncc2)c1)N(C)CCn1cccn1`, the “% Inhibition” value is recorded as -7% and the Z score was 0.98.

In the case of `CC(C)NS(=O)(=O)N1CCN(C(=O)N[C@@H](C2CC2)C(F)(F)F)CC1`, the “% Inhibition” value worked out at 2% and the Z score is -0.34.

For the molecule `COc1ccc(-c2cnnc(-n3nc(C)c4c3NC(=O)C[C@@H]4c3ccccc3Br)n2)cc1`, the “% Inhibition” value amounted to 10% and the Z score is recorded as -1.84.

Take `O=c1ccncn1CC1CCN(c2ncnc3[nH]cnc23)CC1`: the “% Inhibition” value is -2% and the Z score is given as 0.25.

`Cc1ccc(C(=O)N(C2CC2)C2CCN(C(=O)OC(C)(C)C)CC2)cc1S(C)(=O)=O`: the “% Inhibition” value is listed as 6% and the Z score is listed as -1.04.

On to `CCOc1cccc(-c2noc(Cn3c(=O)n(CCc4ccccc4)c(=O)c4sccc43)n2)c1`, for which the “% Inhibition” value is listed as -10% and the Z score is listed as 1.25.

Turning to `Cc1nonc1CC(=O)NCc1nc2c(C)cccc2o1`, the “% Inhibition” value is recorded as -5% and the Z score came to 0.85.

Consider `O=C(NCc1cccc(F)c1)c1cnn2c3c(cnc12)CCCCCC3`, for which the “% Inhibition” value is listed as -4% and the Z score is 0.64.

Consider `CC(C)NC(=O)C(C)Oc1ccc2c(c1)C(c1ccc(F)cc1)N(C(=O)C(C)C)CC2` (stereo unspecified), for which the “% Inhibition” value was found to be 7% and the Z score was -0.9.

With `COCCn1cncc1Cn1c(=O)n(CC2CC2)c2ccc(C(=O)O)cc21`, the “% Inhibition” value is 5% and the Z score was -0.7.

Consider `CN(C(=O)OC(C)(C)C)[C@@H](C(=O)O)c1cccc(Cl)c1Cl`, for which the “% Inhibition” value worked out at 5% and the Z score is recorded as -0.75.

As to `Fc1ccc(C#Cc2cncc(C#Cc3ccc(F)cc3)c2)cc1`, the “% Inhibition” value was -7% and the Z score is reported as 0.98.

Regarding `CN1C(=O)[C@H](c2c(-c3ccc(Cl)cc3)[nH]c3[nH]c(=O)[nH]c(=O)c23)c2ccccc21`, the “% Inhibition” value was -1% and the Z score is listed as 0.16.

For the molecule `CC1(C)CC(NC(=O)c2ccc3[nH]c4c(c3c2)CCCC4)CC(C)(C)N1`, the “% Inhibition” value is -3% and the Z score came to 0.35.

Turning to `C=C(C)C[C@H](C)C(=O)Nc1ccc(CO)c(CO)c1`, the “% Inhibition” value is listed as -15% and the Z score is 2.91.

In the case of `CO[C@H]1C[C@H]2CC[C@@H](C1)N2C(=O)c1snnc1C(C)C`, the “% Inhibition” value is listed as -7% and the Z score amounted to 1.16.

As for `COc1ccc(CCC(=O)N2CC[C@H](Oc3ccnc(C)n3)C2)cc1`, the “% Inhibition” value stood at 0% and the Z score is given as 0.07.

In the case of `CN(CC(=O)N(C)Cc1nnc(-c2ccccc2)o1)Cc1cccnc1`, the “% Inhibition” value was -7% and the Z score is given as 1.1.

For the molecule `O=C(Nc1cc(C(F)(F)F)c[nH]c1=O)C(=O)N1CCCCCCC1`, the “% Inhibition” value was 2% and the Z score is -0.38.

`CC(C)C[C@@H](CO)N(C)C(=O)c1ccncc1`: the “% Inhibition” value is on record as -9% and the Z score is given as 1.57.

As to `CCc1nc(NCc2cccnc2N2CCN(c3ccccn3)CC2)ncc1C`, the “% Inhibition” value is -3% and the Z score is on record as 0.37.

For `Cc1cccc([C@H]2C(=O)NCCN2C(=O)Cc2ccc(C)c(O)c2)c1`, the “% Inhibition” value is reported as -6% and the Z score worked out at 0.72.

Turning to `NC(=O)c1ccnc(NCc2nc(-c3cccc(F)c3)c(-c3ccccn3)[nH]2)c1`, the “% Inhibition” value is -10% and the Z score came to 1.73.

In the case of `CCN(CCc1nccs1)C(=O)c1cccc(C(=O)O)c1`, the “% Inhibition” value was -9% and the Z score is reported as 0.87.

Take `CCN(CC)c1nnc(-c2ccc3c(c2)OCO3)n1C`: the “% Inhibition” value is recorded as -2% and the Z score amounted to 0.23.

In the case of `Cc1nnc(NC(=O)c2ccoc2)s1`, the “% Inhibition” value was -7% and the Z score is 1.02.

Regarding `COc1ccc(-n2nc3c(N4CCC[C@H](C(=O)NCc5ccccc5C)C4)nnc(C)c3c2C)cc1`, the “% Inhibition” value came to 19% and the Z score is recorded as -2.18.

In the case of `COc1ccc(-c2cn(C3CCN(c4ncccn4)CC3)nn2)cc1`, the “% Inhibition” value amounted to 6% and the Z score is reported as -1.17.

For the molecule `COc1ccc(F)c(CN2CCC[C@@]3(CCN(C(=O)c4cn[nH]c4)C3)C2)c1`, the “% Inhibition” value was found to be 4% and the Z score is -0.77.

Regarding `CCc1ncsc1NC(=O)c1ncccc1-n1ncc2ccccc21`, the “% Inhibition” value stood at 1% and the Z score is listed as -0.22.

On to `CC(C)c1cc(C(=O)OCC(=O)N2CCNC2=O)c2ccccc2n1`, for which the “% Inhibition” value was -17% and the Z score is recorded as 2.24.

For the molecule `CCCn1c(=O)c2ccccc2n(CC(=O)N2CCN(c3ccc(OC)cc3)CC2)c1=O`, the “% Inhibition” value is on record as -5% and the Z score is listed as 0.7.

With `Cn1nccc1C(=O)NCCCc1ccccc1`, the “% Inhibition” value is listed as -5% and the Z score came to 1.07.

Turning to `Cc1ccc(C)c(NC(=O)CN2C(=O)COc3ccc(C(=O)N4CCCC4)cc32)c1`, the “% Inhibition” value amounted to 1% and the Z score is listed as -0.07.

For `CCN1CCN(c2c(CN(C(=O)Cc3ccccc3)C(C)C)c(C)nn2-c2cccc(F)c2)CC1`, the “% Inhibition” value is on record as -4% and the Z score stood at 0.79.
